Consider 1 compound from patent US7238658B2 (Genentech, Inc., priority 2001, dated 2007).

Several values for one entry are separate records, joined by “and”; a condition that tells them apart may be missing. Identical values can stand only once. Like-named read-outs stand apart in the source and are kept apart here.

For test [1], the system named is IGF-1R-mediated signaling. Briefly: Cell-based receptor activation assay. From the text:
Such drugs include orally bioavailable therapy for metabolic disease such as diabetes.

The next test concerns the target IGF-1 binding to IGFBP-3 (Homo sapiens, UniProt P05019). In words: IGF-1 phage ELISA: residual binding of IGF-1 on phage to immobilized IGFBP-3. For orientation: An ELISA detects its analyte on a solid surface through an enzyme-linked reagent.
The target in test [2] is T1, IGF-1 (Homo sapiens, UniProt P05019). Briefly: NMR chemical shift titration of detergent into IGF-1 solution. The following applies: titration into 0.5 mM IGF-1 solution.
The target of a further test is IGF-1 binding to IGFBP-1 (Homo sapiens, UniProt P05019). Briefly: IGF-1 phage ELISA: residual binding of IGF-1 on phage to immobilized IGFBP-1.
Test [3] concerns the target T1, IGF-1. In words: NMR diffusion-based measurement of detergent binding to IGF-1.

T1 sequence (P05019 49-118): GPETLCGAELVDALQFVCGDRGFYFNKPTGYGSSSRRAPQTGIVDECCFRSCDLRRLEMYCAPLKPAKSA
IGF-1 binding to IGFBP-1, sequence (P05019 49-118): as above
IGF-1 binding to IGFBP-3, sequence (P05019 49-118): as above

With `C[C@H](CCC(=O)N(CCCNC(=O)[C@H](O)[C@@H](O)[C@H](O)[C@H](O)CO)CCCNC(=O)[C@H](O)[C@@H](O)[C@H](O)[C@H](O)CO)[C@H]1CC[C@H]2[C@@H]3CC[C@@H]4C[C@H](O)CC[C@]4(C)[C@H]3C[C@H](O)[C@]12C`, in test [1], the “inhibition of IGF-1R-mediated signaling” value is listed as “does not inhibit”. Also, the “inhibition of IGFBP-3 binding to IGF-1 (preliminary results, Example 1)” value at IGF-1 binding to IGFBP-3 is on record as “does not inhibit binding”. Moreover, at IGF-1 [2], the “affinity for IGF-1 from chemical shift changes” value is “submillimolar”. For the same compound, the “inhibition of IGFBP-1 binding to IGF-1 (preliminary results, Example 1)” value at IGF-1 binding to IGFBP-1 (preliminary results) is reported as “does not inhibit binding”. For the same compound, at IGF-1 binding to IGFBP-1 (read-out: IC50, inhibition of IGF-1 on phage binding to IGFBP-1, plate-based ELISA, CMC 1.4 mM is upper limit on curve), the IC50 – broadly, the concentration that inhibits the measured activity by half – was determined as 480 ± 170 µM. In addition, the Kd (usually the free concentration of one partner at which half of the binding sites on the other are occupied at equilibrium, for simple one-to-one binding) at IGF-1 [3] (read-out: Kd for interaction of detergent with IGF-1 (overall NMR-based estimate), estimate over three protein concentrations) is 300 µM and ~300 µM; at IGF-1 [3] (read-out: Kd for interaction of detergent with IGF-1, 0.125 mM IGF-1, 2 molar equivalents of detergent, 40° C., pH 6.5), 430 µM; on IGF-1 [3] (read-out: Kd for interaction of detergent with IGF-1, 0.25 mM IGF-1, 2 molar equivalents of detergent, 40° C., pH 6.5), 440 µM; on IGF-1 [3] (read-out: Kd for interaction of detergent with IGF-1, 0.5 mM IGF-1, 2 molar equivalents of detergent, 40° C., pH 6.5), 220 µM.
